{"source": "the RNAGym collection of RNA variant scans (doi:10.7554/elife.90254)", "parents": {"B1": {"name": "LINE1-mini (parent)", "chain": "GGCAGAGCUCAACACAGCGUGGCAAAGUGGCUGUGGCUAGACUGCC"}}, "note": "Read counts are not given, so values of variants with three or more changes are uncertain.", "data": [{"variants_of": "B1", "assay": "self-cleavage, relative activity (ratio to wild type); higher = more cleavage; in vitro, sequencing; the parent is a self-cleaving ribozyme", "values": [{"variant": "GGCAUAGCUCAGCACAGCGUGGCAAAGUGGCUAUGGCUAGACUGCC", "self-cleavage": 0.04}, {"variant": "GACAGAGCUCAACACAGUGUGGCAAAGUGGCUGUGGCUAGACUGCA", "self-cleavage": 0.34}, {"variant": "GGCAUAGCUCAAAACAGCGUGGCAAAGUGGCUGUGGCUAGACUGGC", "self-cleavage": 0.03}, {"variant": "GGCAGAGCACAACACAACGUGGCAAUGCGACUGUGGCUAGACUGCC", "self-cleavage": 0.25}, {"variant": "GGGAGAGCUCAAAACAGCGUGGCAAAGUGGCUGUGGCCAGACUGCC", "self-cleavage": 0.11}, {"variant": "GGCAGAGCUCAACACAGCGUGGCAAAGUGGAUUUGGCUAGACUGCA", "self-cleavage": 0.11}, {"variant": "GGCAGAGCUUAACACAGCGUGCCAAAGUGGCUGUGGCUAGACUGAC", "self-cleavage": 0.47}, {"variant": "GGAAGAGCUCAACACAGCGUGCCAAAGUGGUUGUAGCUAGACUGCC", "self-cleavage": 0.09}, {"variant": "AGCAGAGCUCGACACAGCAUGGCAAAGUGGCUGUGGCUCGGCUGCC", "self-cleavage": 0.11}, {"variant": "GGCUGAGCUGAACACAGCGAGACAAAGUGGCUGUGGCUAGACUGCC", "self-cleavage": 0.02}, {"variant": "GGCAGAGUUCAACAUAGCGUAGCAAAGUGGAUGUGGCUAGACUACC", "self-cleavage": 0.3}, {"variant": "GGCAGAGCUCAACACAGCGUGGCAAAGCGGCGGUAGCUAGACUGCC", "self-cleavage": 0.03}, {"variant": "GGCAGAGCUUAACACAGCGUACCAAAGUGGCUGUGGCUAGACUCCC", "self-cleavage": 0.09}, {"variant": "GGUAGAACUCAUCACAGCGUCGCAAAGUGGCUGUGGCCAGACUGCC", "self-cleavage": 0.25}, {"variant": "GGCAGAGCUCAACACACCGAGGCAGAGUGGCUGUGGCUAGACUGCC", "self-cleavage": 0.28}, {"variant": "GGCAGAGCUCAACAAAGCGUGGCAAAAUGGCUGAGGCUAGACUGCC", "self-cleavage": 0.49}, {"variant": "GGCGGAGUUCAACACAGCGUGGCAAAGUGGCUUUGGCUAGAUUGCC", "self-cleavage": 0.05}, {"variant": "GGCAGAGCUCAACACAGCGUGGCAAAGUGUCUGUGACUAGACUCCC", "self-cleavage": 0.01}, {"variant": "GGCAGCGCCCAACACAGCGUGGCAAGGUGGCUGUAGCUAGACUGCC", "self-cleavage": 0.06}, {"variant": "GGCAGAGCUCAACCCAGCGUGGCAAAGUGUCUGUGGCUAGAAUGCC", "self-cleavage": 0.06}, {"variant": "GGCGGAGCUCGACACAGCGUUGCAAAGUGGCUGGGGCUAGACUGCC", "self-cleavage": 0.02}, {"variant": "UGCAGAGCUCAACACAGCGAGGAAAAGUGGCUGUGGCUAGCGUGCG", "self-cleavage": 0.03}, {"variant": "GGCAGCGCUCCACACAGCGUGGCAAUCUGGCUGUGGCUAGAUUGCC", "self-cleavage": 0.01}, {"variant": "GGCAGAGCUAAACAUAGCGUGGCAAAGUUGCUGUGGCUAGACUGCC", "self-cleavage": 0.06}, {"variant": "GGCAGAGCUCAACACAGCGUGGCACAGUGGAUGUCGCUAGACUGCA", "self-cleavage": 0.04}, {"variant": "GGCAGAGCUCAACACAGCGUGUAAACCUGGCUGUGCCUAGACUGCC", "self-cleavage": 0.06}, {"variant": "UGCAGAGCUCAACACAGCGUGGCAAAGCAGCUGUGGCUAGACUGCC", "self-cleavage": 0.03}, {"variant": "GGCAGAGCCCAAGACAGCGUGACAAAGUGGCAGUAGCUAGACUGCC", "self-cleavage": 0.02}, {"variant": "GGCAUACCGUAACCCAGCGUGGCAGAGUGGCUGUGGCUAGACUGCC", "self-cleavage": 0.03}, {"variant": "GGCAGAGCGCAACACAGGGUGGCAAAGUGGCUCUGGCUAGACUGCC", "self-cleavage": 0.11}, {"variant": "GGCUGAGCUCAACACAGCGUGGCAAAGUGGCUGUAACAAGACUGCC", "self-cleavage": 0.05}, {"variant": "GGCAGAGCUCAAGACAGCGUUGCACAGAGGCUGUGGCUAGACUGCC", "self-cleavage": 0.21}, {"variant": "UGCAGAGCUCAACACAGGGUGCCAAAGUGGCUGUGGCUAGACUGCC", "self-cleavage": 0.22}, {"variant": "GGUUGAGCUCAACACAGCCUGGCAAAGUGGCUGCGGUGAGACUGCC", "self-cleavage": 0.02}, {"variant": "GGCAGAGCUGAACACAGCGUGGCACAGUGGCUGUGGCUAGACUGUC", "self-cleavage": 0.02}, {"variant": "GGCAUAUCUCAACACAGCGUGGCAAAGGGGGUGUGGGUAGACUGCC", "self-cleavage": 0.2}, {"variant": "GACAGAGCUCAACACAACGUGGCAAAGUGGCUGUGGCUAGACUGUC", "self-cleavage": 1.15}, {"variant": "AGUAGAGCUCAACACAGCGUGGCACAGAGGCUGGGGUUAGUCUGCC", "self-cleavage": 0.08}, {"variant": "UGCAGAGCUCAACACAGCGUGGCAAAGUGCCUGCGGCUAGACUGCC", "self-cleavage": 0.02}, {"variant": "GGCAGAGGUCAACACAGCGUCGCAAAGUGGCUUUGGCUAGACUGCC", "self-cleavage": 0.07}, {"variant": "GGCAGAGCUCAACACAGCGUGGCAAAACGGCUGUGGCUAAACAGCC", "self-cleavage": 0.03}, {"variant": "AGCAGAGCUAAACACAGCGUGGCAAAGUGCCUGUGGCUAGAGUGCC", "self-cleavage": 0.03}, {"variant": "GGCAGAGCUCAACGCAGCGUGGCAAAGGGGCUGUGACUAGACUGCC", "self-cleavage": 1.29}, {"variant": "GGCAGAGCUCAAGACGGCGUGGCAAAGUGGCUGUGGCUUGAGUGCC", "self-cleavage": 0.01}, {"variant": "GGCUGAGCUCAACAAAGCGUGGCAAAGUGGCUGUGGCUAGACUGCA", "self-cleavage": 0.04}, {"variant": "GGCAGAGCUCAACACUGCGUGGCAAAGUUGCUGUUGCUAGACUGCC", "self-cleavage": 0.02}, {"variant": "GGCAGAGCUAAACACAGCGUGGCGAAGUGGCUGUGGCUAGACUGCA", "self-cleavage": 0.03}, {"variant": "GGCAGAGCUUAACACAGCGUGGCAAAGUGGCUGUGGCUAGGCUACC", "self-cleavage": 0}, {"variant": "GGCAGAGCUUAACACAGCAUGUCAAAGUGGCUGGGGCUAGACUGCC", "self-cleavage": 0.19}, {"variant": "GGCAGAGCUCAAAAGAGCGUGCCAAAGUGGAUGUGGCUAGAAUGCC", "self-cleavage": 0}, {"variant": "AGCAGAGCGCAACACAUCGUGGCAAACUGGCUGUUGCUAGACUGCC", "self-cleavage": 0.04}, {"variant": "GGCAGAGCUCAAGACAGAGUAGCAAAGUGGCUCUGGCAACACUCCA", "self-cleavage": 0}, {"variant": "GGCAGCGGUCAACACAGCGUGGCAAAGUGGCUGUGGCUAGACGGCC", "self-cleavage": 0}, {"variant": "GCCAGAGCUCAAGACCGCGUGGCAAAGUGGCUGUGGCUAGACUGCC", "self-cleavage": 0.08}, {"variant": "GGCAGAGCUCAGCACAGCGUGGCAGAGUCGCUGUGGCUAGACUGCU", "self-cleavage": 0}, {"variant": "GGCAAAGCUCAACACAUCGUGGCGAAGGGGCUGUGGCUAGACUGCC", "self-cleavage": 0.03}]}]}
